Biological target: the molecule itself
Test: crystal structure; rabbit muscle TPI at 10 mg/ml with 5 mM PEP in 20 mM Tris pH 7.0, 150 mM NaCl, 5 mM MgCl2; sitting drop at 20°C, reservoir 0.1 M MES pH 6.5, 25% PEG 8000; homodimer in the asymmetric unit

B1: Native rabbit muscle triosephosphate isomerase (TPI) (enzyme)
chain: not shown
notes: Triosephosphate isomerase, rabbit muscle, native enzyme (EC 5.3.1.1); homodimer in the asymmetric unit; also called TIM; rabbit TPI; source: bought: Sigma (native rabbit muscle TPI), buffer exchanged on a HiTrap Desalting column
stoichiometry N: 2

Source: article PMC3971408, “Inhibition of triosephosphate isomerase by phosphoenolpyruvate in the feedback-regulation of glycolysis” (Open Biology, 2014)
